# Data: the supplement of paper PMC8728848
# This is one part of the list.
# Key:
# Assay in all cases: glycan array binding signal (z-score within array); higher = stronger binding
# Conditions in all cases: glycan notation: IUPAC condensed, linker removed
# [1] = target: Fuc(a1-2)[GalNAc(b1-3)]Gal
# In short: (§1)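 Arrays were curated from the Consortium for Functional Glycomics database, 3228 in total, and kept only where the protein sequence was available. Binding is expressed as a within-array Z-score. This score was averaged across arrays of the same protein sequence at different concentrations or buffers and across linkers, and negative values can be read as non-binding.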
# Fuc(a1-3)GlcNAc = target: Fuc(a1-3)GlcNAc
# In short: as §1
# [2] = target: Fuc(a1-3)[Gal(b1-4)]Glc6S
# In short: as §1
# [3] = target: Fuc(a1-3)[Gal(b1-4)]GlcNAc
# In short: as §1
# [4] = target: Fuc(a1-3)[Gal(b1-4)]GlcNAc(b1-2)Man
# In short: as §1
# [5] = target: Fuc(a1-3)[Gal(b1-4)]GlcNAc(b1-2)Man(a1-3)[Fuc(a1-3)[Gal(b1-4)]GlcNAc(b1-2)Man(a1-6)]Man(b1-4)GlcNAc(b1-4)GlcNAc
# In short: as §1
# [6] = target: Fuc(a1-3)[Gal(b1-4)]GlcNAc(b1-2)Man(a1-3)[Fuc(a1-3)[Gal(b1-4)]GlcNAc(b1-2)Man(a1-6)]Man(b1-4)GlcNAc(b1-4)[Fuc(a1-6)]GlcNAc
# In short: as §1
# [7] = target: Fuc(a1-3)[Gal(b1-4)]GlcNAc(b1-3)Gal(b1-3)[Fuc(a1-4)]GlcNAc
# In short: as §1
# [8] = target: Fuc(a1-3)[Gal(b1-4)]GlcNAc(b1-3)Gal(b1-4)[Fuc(a1-3)]GlcNAc
# In short: as §1
# [9] = target: Fuc(a1-3)[Gal(b1-4)]GlcNAc(b1-3)Gal(b1-4)[Fuc(a1-3)]GlcNAc(b1-3)Gal(b1-4)[Fuc(a1-3)]GlcNAc
# In short: as §1
# [10] = target: Fuc(a1-3)[Gal(b1-4)]GlcNAc(b1-3)GalNAc
# In short: as §1
# [11] = target: Fuc(a1-3)[Gal(b1-4)]GlcNAc(b1-6)GalNAc
# In short: as §1
# [12] = target: Fuc(a1-3)[Gal(b1-4)]GlcNAc(b1-6)[Gal(b1-3)GlcNAc(b1-3)]Gal(b1-4)Glc
# In short: as §1
# [13] = target: Fuc(a1-3)[Gal(b1-4)]GlcNAc6S
# In short: as §1
# [14] = target: Fuc(a1-3)[Gal3S(b1-4)]Glc
# In short: as §1
# [15] = target: Fuc(a1-3)[Gal3S(b1-4)]GlcNAc
# In short: as §1
# [16] = target: Fuc(a1-3)[Gal3S(b1-4)]GlcNAc6S
# In short: as §1
# [17] = target: Fuc(a1-3)[GalNAc(b1-4)]GlcNAc
# In short: as §1
# [18] = target: Fuc(a1-3)[GalNAc(b1-4)]GlcNAc6S
# In short: as §1
# Fuc(a1-4)GlcNAc = target: Fuc(a1-4)GlcNAc
# In short: as §1
# Fuc(b1-3)GlcNAc = target: Fuc(b1-3)GlcNAc
# In short: as §1
# Gal(a1-2)Gal = target: Gal(a1-2)Gal
# In short: as §1
# Gal(a1-3)Gal = target: Gal(a1-3)Gal
# In short: as §1
# Gal(a1-3)Gal(b1-3)GlcNAc = target: Gal(a1-3)Gal(b1-3)GlcNAc
# In short: as §1
# [19] = target: Gal(a1-3)Gal(b1-3)GlcNAc(b1-2)Man
# In short: as §1
# [20] = target: Gal(a1-3)Gal(b1-3)GlcNAc(b1-2)Man(a1-3)[Gal(a1-3)Gal(b1-3)GlcNAc(b1-2)Man(a1-6)]Man(b1-4)GlcNAc(b1-4)GlcNAc
# In short: as §1
# [21] = target: Gal(a1-3)Gal(b1-3)GlcNAc(b1-3)GalNAc
# In short: as §1
# [22] = target: Gal(a1-3)Gal(b1-3)GlcNAc(b1-6)GalNAc
# In short: as §1
# [23] = target: Gal(a1-3)Gal(b1-3)[Fuc(a1-4)]GlcNAc(b1-2)Man(a1-3)[Gal(a1-3)Gal(b1-3)[Fuc(a1-4)]GlcNAc(b1-2)Man(a1-6)]Man(b1-4)GlcNAc(b1-4)GlcNAc
# In short: as §1
# Gal(a1-3)Gal(b1-4)Glc = target: Gal(a1-3)Gal(b1-4)Glc
# In short: as §1
# Gal(a1-3)Gal(b1-4)GlcNAc = target: Gal(a1-3)Gal(b1-4)GlcNAc
# In short: as §1
# [24] = target: Gal(a1-3)Gal(b1-4)GlcNAc(b1-2)Man
# In short: as §1
# [25] = target: Gal(a1-3)Gal(b1-4)GlcNAc(b1-2)Man(a1-3)[Gal(a1-3)Gal(b1-4)GlcNAc(b1-2)Man(a1-6)]Man(b1-4)GlcNAc(b1-4)GlcNAc
# In short: as §1
# [26] = target: Gal(a1-3)Gal(b1-4)GlcNAc(b1-3)GalNAc
# In short: as §1
# [27] = target: Gal(a1-3)Gal(b1-4)GlcNAc(b1-6)GalNAc
# In short: as §1
# [28] = target: Gal(a1-3)Gal(b1-4)[Fuc(a1-3)]GlcNAc
# In short: as §1
# [29] = target: Gal(a1-3)Gal(b1-4)[Fuc(a1-3)]GlcNAc(b1-2)Man(a1-3)[Gal(a1-3)Gal(b1-4)[Fuc(a1-3)]GlcNAc(b1-2)Man(a1-6)]Man(b1-4)GlcNAc(b1-4)GlcNAc
# In short: as §1
binder,measurement,setting,value
"Apa (Mycobacterium tuberculosis), Rv1860 (protein) MHQVDPNLTRRKGRLAALAIAAMASASLVTVAVPATANADPEPAPPVPTTAASPPSTAAAPPAPATPVAPPPPAAANTPNAQPGDPNAAPPPADPNAPPPPVIAPNAPQPVRIDNPVGGFSFALPAGWVESDAAHFDYGSALLSKTTGDPPFPGQPPPVANDTRIVLGRLDQKLYASAEATDSKAAARLGSDMGEFYMPYPGTRINQETVSLDANGVSGSASYYEVKFSDPSKPNGQIWTGVIGSPAANAPDAGPPQRWFVVWLGTANNPVDKGAAKALAESIRPLVAPPPAPAPAPAEPAPAPAPAGEVAPTPTTPTPQRTLPA",glycan array binding signal (z-score),[1],-0.481
same,glycan array binding signal (z-score),Fuc(a1-3)GlcNAc,-0.29
same,glycan array binding signal (z-score),[2],0.898
same,glycan array binding signal (z-score),[3],-0.056
same,glycan array binding signal (z-score),[4],0.96
same,glycan array binding signal (z-score),[5],-0.521
same,glycan array binding signal (z-score),[6],-0.233
same,glycan array binding signal (z-score),[7],-0.154
same,glycan array binding signal (z-score),[8],0.272
same,glycan array binding signal (z-score),[9],-0.421
same,glycan array binding signal (z-score),[10],0.093
same,glycan array binding signal (z-score),[11],0.876
same,glycan array binding signal (z-score),[12],-0.148
same,glycan array binding signal (z-score),[13],1.94
same,glycan array binding signal (z-score),[14],0.062
same,glycan array binding signal (z-score),[15],-0.215
same,glycan array binding signal (z-score),[16],-0.076
same,glycan array binding signal (z-score),[17],0.301
same,glycan array binding signal (z-score),[18],-0.267
same,glycan array binding signal (z-score),Fuc(a1-4)GlcNAc,-0.036
same,glycan array binding signal (z-score),Fuc(b1-3)GlcNAc,-0.143
same,glycan array binding signal (z-score),Gal(a1-2)Gal,0.436
same,glycan array binding signal (z-score),Gal(a1-3)Gal,-0.259
same,glycan array binding signal (z-score),Gal(a1-3)Gal(b1-3)GlcNAc,-0.245
same,glycan array binding signal (z-score),[19],0.743
same,glycan array binding signal (z-score),[20],0.147
same,glycan array binding signal (z-score),[21],-0.04
same,glycan array binding signal (z-score),[22],-0.171
same,glycan array binding signal (z-score),[23],0.382
same,glycan array binding signal (z-score),Gal(a1-3)Gal(b1-4)Glc,-0.055
same,glycan array binding signal (z-score),Gal(a1-3)Gal(b1-4)GlcNAc,-0.079
same,glycan array binding signal (z-score),[24],-0.089
same,glycan array binding signal (z-score),[25],0.299
same,glycan array binding signal (z-score),[26],-0.37
same,glycan array binding signal (z-score),[27],-0.2
same,glycan array binding signal (z-score),[28],-0.489
same,glycan array binding signal (z-score),[29],0.302
